Measured values: PubChem BioAssay AID1347165 (National Center for Advancing Translational Sciences (NCATS), 2019)
Among all 220,000 compounds or so, about 5,700 (2.6%) were called active. This list was built around the results that the source calls inconclusive (neither active nor inactive); the mix of calls is not that of the screen. The call rests on the fitted dose curve; in most records, active means well fitted inhibition curve with a large enough effect; inconclusive means small, poorly fitted or top-dose-only effect; inactive means no such curve, though single readings can be large or run the other way. Potencies beside an inconclusive call are fits to weak or partial responses and may not hold up.

Molecular target: Lysine-specific demethylase 5B (Homo sapiens) (UniProt Q9UGL1)
Test: Primary screen for KDM5B Histone Demethylases FDH-coupled qHTS; further: nearly all actives have a fitted effect of over 70% in size; on activity change, negative = inhibition: 0% is about no effect
Conditions: FDH-coupled NADH fluorescence (FDH is formaldehyde dehydrogenase); activity change, negative = inhibition: at 57.7 µM (top of the series) unless noted
Method in brief: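 qHTS format, multiple compound concentrations. Buffer 50 mM HEPES pH 7.5/0.01% Tween-20; 200 nM KDM5BΔAP final; 10 min compound preincubation; substrate-mix levels 12.5 µM peptide, 25 µM α-KG, 0.25 mM NAD⁺; 30 min RT; ΔRFU.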
Potency means the concentration at half of the fitted maximal effect; tags describe the fitted curve by direction and shape.

UniProt Q9UGL1, sequence (Q9UGL1 whole entry, looked up): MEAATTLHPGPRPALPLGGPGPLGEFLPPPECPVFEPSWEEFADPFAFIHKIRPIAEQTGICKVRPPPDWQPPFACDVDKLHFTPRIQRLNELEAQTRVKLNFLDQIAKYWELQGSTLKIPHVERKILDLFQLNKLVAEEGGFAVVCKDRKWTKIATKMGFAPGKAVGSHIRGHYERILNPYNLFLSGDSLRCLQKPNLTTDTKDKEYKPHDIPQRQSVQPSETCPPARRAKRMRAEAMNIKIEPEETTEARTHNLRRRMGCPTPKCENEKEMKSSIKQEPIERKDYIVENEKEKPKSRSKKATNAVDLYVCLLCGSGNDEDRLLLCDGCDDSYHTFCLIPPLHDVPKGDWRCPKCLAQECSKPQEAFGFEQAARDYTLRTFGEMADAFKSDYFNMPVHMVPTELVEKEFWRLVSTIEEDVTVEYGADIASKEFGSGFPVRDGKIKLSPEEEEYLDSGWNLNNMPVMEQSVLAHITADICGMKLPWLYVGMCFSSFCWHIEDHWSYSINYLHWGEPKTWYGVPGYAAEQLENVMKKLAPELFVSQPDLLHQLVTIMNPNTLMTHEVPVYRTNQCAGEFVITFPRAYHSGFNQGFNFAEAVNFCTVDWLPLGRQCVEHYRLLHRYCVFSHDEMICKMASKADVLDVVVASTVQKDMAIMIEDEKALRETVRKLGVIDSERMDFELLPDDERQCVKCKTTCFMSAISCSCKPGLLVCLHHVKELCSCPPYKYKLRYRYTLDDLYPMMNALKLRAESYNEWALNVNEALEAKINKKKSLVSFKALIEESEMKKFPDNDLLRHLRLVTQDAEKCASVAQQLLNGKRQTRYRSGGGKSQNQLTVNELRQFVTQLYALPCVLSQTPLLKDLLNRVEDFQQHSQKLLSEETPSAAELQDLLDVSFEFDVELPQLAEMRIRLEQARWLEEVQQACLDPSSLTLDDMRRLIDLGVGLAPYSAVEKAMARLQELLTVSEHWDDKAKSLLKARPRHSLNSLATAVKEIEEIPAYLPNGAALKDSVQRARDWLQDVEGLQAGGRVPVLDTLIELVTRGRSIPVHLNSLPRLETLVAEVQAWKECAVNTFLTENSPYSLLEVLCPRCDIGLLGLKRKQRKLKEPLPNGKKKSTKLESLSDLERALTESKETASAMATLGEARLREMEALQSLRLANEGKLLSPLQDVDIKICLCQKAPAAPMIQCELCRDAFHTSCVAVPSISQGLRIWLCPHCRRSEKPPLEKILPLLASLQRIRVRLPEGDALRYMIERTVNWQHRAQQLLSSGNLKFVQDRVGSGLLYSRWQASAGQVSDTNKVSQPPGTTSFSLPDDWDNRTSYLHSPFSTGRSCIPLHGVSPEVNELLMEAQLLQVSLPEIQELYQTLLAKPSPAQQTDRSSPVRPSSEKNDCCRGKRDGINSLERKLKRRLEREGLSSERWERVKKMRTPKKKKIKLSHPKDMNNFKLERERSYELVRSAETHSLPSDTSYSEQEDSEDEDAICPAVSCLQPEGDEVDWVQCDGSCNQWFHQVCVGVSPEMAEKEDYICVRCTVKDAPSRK

Row | Structure (SMILES) | Potency | activity change, negative = inhibition
1 | CCCCOc1ccc2c(C)cc(=O)oc2c1C | inconclusive: 2 µM [inhibitor, full curve, poor fit] | 
2 | COc1ccc2c(c1)CNC2CS(=O)(=O)NCC(C)C (stereo not drawn) | inconclusive: 20 µM [inhibitor, partial curve, poor fit] | 
3 | COc1ccc(NS(=O)(=O)c2ccc3[nH]c4c(c3c2)CCCC4)cc1Cl | inconclusive: 25.1 µM [inhibitor, single point] | 
4 | C[C@@H](c1ccccc1)N1C(=O)[C@@H]2CN(C(=O)CSc3ccncc3)CCN2C1=O | inconclusive: 50.1 µM [inhibitor, partial curve, poor fit] | 
5 | Cc1ccc(/C(=N/O)c2oc3ccc4c(C)cc(=O)oc4c3c2-c2ccccc2)cc1 | inconclusive: 39.8 µM [inhibitor, single point] | 
6 | CCCCCn1c(-c2ccc(OC)c(OC)c2)nc2ccccc21 | inconclusive: 35.5 µM [inhibitor, single point] | 
7 | Cc1ccc(-c2csc(Nc3ccc(O)cc3)n2)c(C)c1 | inconclusive: 25.1 µM [inhibitor, partial curve, poor fit] | 
8 | COc1ccc(C(=O)N2CC[C@@H]3CN(S(C)(=O)=O)[C@@H]3C2)c(OC)c1 | inactive | 
9 | O=C(CSc1nc2cc([N+](=O)[O-])ccc2o1)NC1CC1 | inactive | 
10 | O=C(C1COc2cc(S(=O)(=O)NCc3ccc(Cl)cc3)ccc2O1)N1CCOCC1 (stereo not drawn) | inactive | 
11 | CC1=C(C(=O)NCc2ccc(Cl)cc2)C2(CCCCC2)OC1=O | inconclusive: 17.8 µM [inhibitor, partial curve, poor fit] | 
12 | CCC(C)(Nc1ccc(OC)c(OC)c1)c1nnnn1-c1c(C)cccc1C (stereo not drawn) | inactive | 
13 | COc1ccc(C(=O)N2CCC(Cc3nc(-c4ccccc4)no3)CC2)cc1OC | inactive | 
14 | CC(C)CCN1CCn2c(nn(-c3ccc([N+](=O)[O-])cc3)c2=O)C1 | inconclusive: 7.08 µM [inhibitor, partial curve, poor fit] | 
15 | CCn1cc(S(=O)(=O)c2cccc(Cl)c2)c(=O)c2cc(F)c(N3CCN(c4ccccc4)CC3)cc21 | inconclusive: 14.1 µM [inhibitor, partial curve, poor fit] | 
16 | CC(C)N1C(=O)C(CC(=O)NCCc2c[nH]c3ccccc23)=C2CCCCC21 (stereo not drawn) | inconclusive: 0.891 µM [inhibitor, partial curve, poor fit] | 
17 | N#Cc1ccccc1S(=O)(=O)N[C@H]1CO[C@H]2[C@@H]1OC[C@H]2OC(=O)Nc1cccc(C(F)(F)F)c1 | inactive | 
18 | CNC(=O)c1cccc(-c2cnc3[nH]cc(CC(=O)NCC(C)C)c3c2)c1 | inactive | 
19 | Cc1ccc(C)n1-c1nnc(N2CCCC(C(=O)NCc3cccc(Cl)c3)C2)s1 (stereo not drawn) | inconclusive: 25.1 µM [inhibitor, partial curve, poor fit] | 
20 | COc1ccc(CN2Cc3[nH]cnc3C[C@H]2c2nc(-c3cnccn3)no2)cc1 | inconclusive: 28.2 µM [inhibitor, single point] | 
21 | CCc1ccc(-n2c(Cc3ccccc3)nnc2SCc2nc(-c3cccs3)no2)cc1 |  | inconclusive: -38.3% [inhibitor]
22 | COc1ccc(C(=O)N2CCCN(c3cc(-c4ccc(Cl)cc4)[nH]n3)CC2)cc1F | inconclusive: 20 µM [inhibitor, partial curve, poor fit] | 
23 | COC[C@H]1NC(=O)CC[C@H]1C(=O)N1CCN(c2cccc(C)c2)CC1 | inconclusive: 12.6 µM [inhibitor, partial curve, poor fit] | 

Row | Structure (SMILES) | Potency | activity change, negative = inhibition
24 | CCN(CC(=O)NC(=O)NCC(F)(F)F)Cc1cccc(C)c1 | inactive | 
25 | CCOc1ccc(-c2nc(C3CC(=O)N(c4ccc(Cl)cc4)C3)no2)cc1OCC (stereo not drawn) | inconclusive: 25.1 µM [inhibitor, partial curve, poor fit] | 
26 | COc1ccccc1N1CCN(CCCNC(=O)c2cnn(-c3ccccc3)c2C2CCN(C(=O)OC(C)(C)C)CC2)CC1 | inconclusive: 28.2 µM [inhibitor, partial curve, poor fit] | 
27 | O=C(O)C1(O)CCN(c2ncc(F)c(N3CCOCC3)n2)CC1 | active: 28.2 µM | 
28 | COCCNC(=O)[C@H]1C[C@H](Oc2ccccc2)CN1C(=O)c1cccs1 | inactive | 
29 | Cc1oc2c(c1C(=O)NC(C)c1ccco1)CN(Cc1ccc(F)cc1)CC2 (stereo not drawn) | inconclusive: 35.5 µM [inhibitor, partial curve, poor fit] | 
30 | CCN(C(=O)c1cc2c(s1)-c1ccccc1SC2)c1cc(C)ccc1C | inconclusive: 28.2 µM [inhibitor, single point] | 
31 | Cc1nn2c(c1-c1cccnc1N1CCOCC1)N(CC1CCOCC1)CCC2 | inconclusive: 31.6 µM [inhibitor, single point] | 
32 | O=C(CN1CSCC1=O)NC(c1ccc(F)cc1)C1CCCC1 (stereo not drawn) | inactive | 
33 | Cc1cc(F)ccc1NC(=O)c1nn(CC(C)C)c(=O)c2ccccc12 | inactive | 
34 | C=CCNC(=O)c1ccc2ccnn2c1 | active: 31.6 µM | 
35 | CC(CNc1nccc(C2(c3ccccc3Cl)CCNCC2)n1)CN(C)C (stereo not drawn) | inconclusive: 25.1 µM [inhibitor, single point] | 
36 | Cn1cc(CCCNS(=O)(=O)c2cccc(C(=O)N3CCCC3)c2)cn1 | inactive | 
37 | Cn1c(NCc2ccc3c(c2)OCO3)nc2c1c(=O)n(Cc1ccccc1Cl)c(=O)n2C | inactive | 
38 | CCCCNC(=O)Cn1c(=O)c2c(ncn2CC(C)C)n(CC(C)C)c1=O | inactive | 
39 | CCc1nn2c(=O)cc(COC(=O)c3ccco3)nc2s1 | inconclusive: 25.1 µM [inhibitor, partial curve, poor fit] | 
40 | CC(C)C(=O)N1CCC(COc2ccc3c(cnn3CC[S+](C)(=O)[O-])c2)CC1 | inactive | 
41 | COc1ccc(OCC2(C)COc3ccc(C(=O)N(C)c4ccccc4)cc3N2)cc1 (stereo not drawn) | inconclusive: 35.5 µM [inhibitor, partial curve, poor fit] | 
42 | CNC(=O)NC(=O)COc1c(Cl)cc(Cl)c2ccc(C)nc12 | inactive | 
43 | CN(C)CCCn1c(=S)[nH]c2sc3c(c2c1=O)CCCC3 | inconclusive: 22.4 µM [inhibitor, single point] | 
44 | Cc1cc(=O)oc2cc(OCC(=O)N3CCc4sccc4C3)ccc12 | inconclusive: 22.4 µM [inhibitor, partial curve, poor fit] | 
45 | CC#CCn1cc2c3c(cccc31)[C@H](CC(C)C)N[C@H](C(=O)NCc1cccs1)C2 | inconclusive: 35.5 µM [inhibitor, single point] | 
46 | COc1ccccc1Nc1cnc2ccc(-c3cccc(CO)c3)nn12 | inconclusive: 35.5 µM [inhibitor, single point] | 

Row | Structure (SMILES) | Potency | activity change, negative = inhibition
47 | CCOc1ccc(CN(C)C(=O)CNC(=O)c2cc(OC)c(OC)c(OC)c2)cc1 | inconclusive: 35.5 µM [inhibitor, partial curve, poor fit] | 
48 | O=C(/C(=C/c1ccsc1)C(=O)C(F)(F)F)c1ccccc1 | inconclusive: 39.8 µM [inhibitor, single point] | 
49 | CCCCNC(=O)c1cc(-c2ccc(OC)cc2)nc2ccccc12 | inconclusive: 14.1 µM [inhibitor, partial curve, poor fit] | 
50 | COC(=O)c1nnn(-c2cccc(C)c2)c1C(=O)OC | inactive | 
51 | N#Cc1ccc(OCc2ccc(C=O)o2)cc1 | inconclusive: 39.8 µM [inhibitor, partial curve, poor fit] | 
52 | COc1ccc(-c2oc(=O)oc2-c2ccc(OC)c(OC)c2)cc1OC | inconclusive: 28.2 µM [inhibitor, partial curve, poor fit] | 
53 | COc1ccc(NC(=O)CSc2cc(C)nc3c(-c4ccccc4)cnn23)cc1 | inconclusive: 31.6 µM [inhibitor, partial curve, poor fit] | 
54 | O=C(NCc1cccnc1OCc1ccccc1)Nc1nnc(C2CC2)s1 | inactive | 
55 | CCOC(=O)c1ccc(NC(=O)c2ncoc2-c2cccc(C)c2)cc1 | inactive | 
56 | COc1cc(-c2nc3ccccc3s2)cc(OC)c1OC | inconclusive: 28.2 µM [inhibitor, partial curve, poor fit] | 
57 | O=C(NC1CC1)C(NCc1ccc(C(F)(F)F)cc1)c1ccccc1 (stereo not drawn) | inactive | 
58 | COc1ccc(COC(=O)C2=C(C)NC(=O)CC2c2cc3c(cc2Br)OCO3)cc1 (stereo not drawn) | inactive | 
59 | COc1ccc(Cn2nccc2NC(=O)c2cc(=O)c3cc(Cl)ccc3o2)cc1 | inactive | 
60 | CCOc1cccc2sc(N(Cc3cccnc3)C(=O)C3=COCCO3)nc12 | inconclusive: 39.8 µM [inhibitor, single point] | 
61 | O=C1CCCC2=C1C1c3ccccc3C(=O)N1c1ccc(C(=O)c3ccccc3)cc1N2 (stereo not drawn) | inactive | 
62 | COc1ccc(-c2ccc3nnc(CNC(=O)c4sccc4C)n3n2)cc1 | active: 31.6 µM | 
63 | Cc1ccccc1N1CC(C(=O)Nc2ccccc2C(=O)N2CCN(c3ccccc3)CC2)CC1=O (stereo not drawn) | inactive | 
64 | Cn1c(=O)[nH]c(=O)c2c1nc(N1CCCCC1)n2C/C=N/NC(=O)c1cc(Br)ccc1O | inconclusive: 35.5 µM [inhibitor, single point] | 
65 | CN(C)c1cccc(C(=O)N2CCC(n3cc(-c4nc(-c5ccccc5)no4)nn3)C2)c1 (stereo not drawn) | inconclusive: 22.4 µM [inhibitor, partial curve, poor fit] | 
66 | CCc1ccc(-n2c(=O)c3cccnc3n2CC(=O)Nc2cc(F)ccc2F)cc1 | inconclusive: 35.5 µM [inhibitor, partial curve, poor fit] | 
67 | Cc1nc2ccc(C(=O)NCCCN3CCOCC3)cc2nc1C | inactive | 
68 | COc1ccc(C(=O)c2sc(Nc3cccc(Cl)c3)nc2N)cc1 | inactive | 
